# Assay results from PubChem BioAssay AID504333 (National Center for Advancing Translational Sciences (NCATS), 2011).
# “And” between values parts separate entries of the source, which are not always exact repeats. Identical values can stand only once. Screen size: about 360,000 compounds; about 16,000 (4.4%) were called active. The shares of active, inactive and inconclusive entries below differ from those in the screen. Calls follow the shape of the dose curve; as a rule, active = well fitted inhibition curve with a large enough effect; inconclusive = small, poorly fitted or top-dose-only effect; inactive = no such curve, though single readings can be large or run the other way. Potencies beside an inconclusive call are fits to weak or partial responses and may not hold up.
# Target: Bromodomain adjacent to zinc finger domain protein 2B (Homo sapiens) (UniProt Q9UIF8)
# Chain of UniProt Q9UIF8 (Q9UIF8 whole entry, looked up, the tested form may be a part): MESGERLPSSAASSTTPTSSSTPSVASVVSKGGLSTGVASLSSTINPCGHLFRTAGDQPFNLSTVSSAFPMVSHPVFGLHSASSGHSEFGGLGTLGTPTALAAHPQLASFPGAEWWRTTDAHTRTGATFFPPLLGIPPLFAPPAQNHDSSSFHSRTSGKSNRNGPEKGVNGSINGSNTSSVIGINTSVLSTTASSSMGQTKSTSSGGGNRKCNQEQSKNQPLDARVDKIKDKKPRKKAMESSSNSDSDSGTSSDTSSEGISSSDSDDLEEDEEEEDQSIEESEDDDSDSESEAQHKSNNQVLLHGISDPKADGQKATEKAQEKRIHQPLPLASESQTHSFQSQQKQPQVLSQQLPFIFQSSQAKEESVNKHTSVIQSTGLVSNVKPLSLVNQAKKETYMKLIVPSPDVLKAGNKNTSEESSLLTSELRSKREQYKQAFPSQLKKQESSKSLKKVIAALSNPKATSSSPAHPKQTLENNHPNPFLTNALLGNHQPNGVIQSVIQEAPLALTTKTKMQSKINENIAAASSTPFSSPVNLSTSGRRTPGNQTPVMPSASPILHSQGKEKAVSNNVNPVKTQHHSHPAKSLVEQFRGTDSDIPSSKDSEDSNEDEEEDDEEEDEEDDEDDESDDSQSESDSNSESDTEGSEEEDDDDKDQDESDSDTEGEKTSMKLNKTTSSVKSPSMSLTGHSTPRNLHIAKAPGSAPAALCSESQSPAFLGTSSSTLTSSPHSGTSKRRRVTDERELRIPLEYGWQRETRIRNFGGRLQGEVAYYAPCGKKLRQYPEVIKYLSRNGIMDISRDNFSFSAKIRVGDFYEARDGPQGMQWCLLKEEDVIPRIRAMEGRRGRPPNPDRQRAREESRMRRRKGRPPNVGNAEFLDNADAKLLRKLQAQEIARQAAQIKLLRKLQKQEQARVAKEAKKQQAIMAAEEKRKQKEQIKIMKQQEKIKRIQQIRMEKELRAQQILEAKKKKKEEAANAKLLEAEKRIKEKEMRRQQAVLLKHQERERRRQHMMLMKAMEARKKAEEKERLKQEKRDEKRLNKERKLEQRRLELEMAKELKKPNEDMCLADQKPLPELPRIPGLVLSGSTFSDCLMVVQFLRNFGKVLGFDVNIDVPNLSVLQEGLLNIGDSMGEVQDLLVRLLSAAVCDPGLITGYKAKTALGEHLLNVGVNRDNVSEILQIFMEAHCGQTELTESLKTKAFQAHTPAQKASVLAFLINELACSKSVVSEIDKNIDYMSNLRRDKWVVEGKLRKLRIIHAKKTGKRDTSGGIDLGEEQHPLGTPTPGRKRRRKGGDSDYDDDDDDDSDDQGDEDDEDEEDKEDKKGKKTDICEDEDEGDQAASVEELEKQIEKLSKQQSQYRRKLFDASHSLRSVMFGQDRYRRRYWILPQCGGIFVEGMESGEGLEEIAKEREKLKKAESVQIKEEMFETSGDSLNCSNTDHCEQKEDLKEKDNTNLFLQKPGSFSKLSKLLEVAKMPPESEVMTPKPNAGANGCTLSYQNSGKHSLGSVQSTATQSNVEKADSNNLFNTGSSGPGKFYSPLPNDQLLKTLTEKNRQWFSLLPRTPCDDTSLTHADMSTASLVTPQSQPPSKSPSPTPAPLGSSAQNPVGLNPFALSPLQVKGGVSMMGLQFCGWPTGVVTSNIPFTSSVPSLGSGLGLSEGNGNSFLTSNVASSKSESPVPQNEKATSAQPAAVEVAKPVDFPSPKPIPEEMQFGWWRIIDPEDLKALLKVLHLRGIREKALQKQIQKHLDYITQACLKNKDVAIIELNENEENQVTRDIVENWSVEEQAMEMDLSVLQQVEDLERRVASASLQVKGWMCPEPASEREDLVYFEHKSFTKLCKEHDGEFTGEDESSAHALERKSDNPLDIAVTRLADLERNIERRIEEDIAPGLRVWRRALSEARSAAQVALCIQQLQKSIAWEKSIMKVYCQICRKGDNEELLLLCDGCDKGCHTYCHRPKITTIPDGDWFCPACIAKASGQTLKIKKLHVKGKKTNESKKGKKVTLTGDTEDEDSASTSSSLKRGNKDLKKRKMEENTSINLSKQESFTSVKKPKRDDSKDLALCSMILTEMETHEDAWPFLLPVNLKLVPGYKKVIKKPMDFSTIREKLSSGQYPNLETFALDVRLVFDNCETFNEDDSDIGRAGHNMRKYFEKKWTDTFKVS
# Experiment: qHTS Assay for Inhibitors of BAZ2B; also: nearly all actives have a fitted effect of over 60% in size
# Details: AlphaScreen BAZ2B-H3K14Ac peptide displacement; series mostly up to 114 µM
# How it was run: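 Compounds, titrated to a top concentration of 110 uM, were incubated 30 min at room temperature with preformed BAZ2B/acetyl-K14 H3 peptide complex (50 nM each). Proximity signal was measured by AlphaScreen after 20 min with beads.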
# Potency is read from the fitted curve at half-maximal effect; tags tell the direction and shape of the fitted curve.
row,Compound,Potency
1,Cc1ccccc1NC(=S)c1ccc2ccccc2n1,active: 10 µM
2,CCOC(=O)c1c(C)[nH]c(C)c1C(=O)COC(=O)/C=C/c1ccc(Cl)cc1,"inconclusive: 50.1 µM [inhibitor, partial curve]"
3,CCCSc1nc2cc(C)c(C)cc2n1CC(C)O (centres undefined),"inconclusive: 89.1 µM [inhibitor, single point]"
4,Cc1cc(C)cc(OCC(=O)N(Cc2ccc(N(C)C)cc2)C2CCS(=O)(=O)C2)c1 (centres undefined),active: 39.8 µM
5,COc1ccc(NC(=O)c2c(NCc3cccs3)sc3c2CCCC3)c(OC)c1,"inconclusive: 14.1 µM [inhibitor, partial curve, poor fit]"
6,CCOC(=O)c1cc(-c2ccc(C)o2)nn1CCC#N,inactive
7,COc1ccc(CNC(=O)c2noc(C)c2[N+](=O)[O-])cc1,inactive
8,O=C(CN1C(=O)c2cccnc2Oc2ccc(Cl)cc21)NCCC1=CCCCC1,inactive
9,CC(=O)OCCCNc1cc(SCc2ccco2)c2nonc2c1[N+](=O)[O-],"inconclusive: 31.6 µM [inhibitor, full curve]"
10,COc1ccccc1-c1noc(-c2ccc(N3CCN(C)CC3)c([N+](=O)[O-])c2)n1,inactive
11,Cc1ccc(NC(=O)c2cc(N3C(=O)C=CC3=O)ccc2N2CCOCC2)cc1,"inconclusive: 79.4 µM [inhibitor, single point]"
12,O=C(/C=C/c1ccccc1)Oc1coc(CSc2ncccn2)cc1=O,"inconclusive: 63.1 µM [inhibitor, partial curve, poor fit]"
13,O=S(=O)(NCCC1=CCCCC1)c1cccc(S(=O)(=O)N2CCOCC2)c1,inactive
14,O=c1[nH][nH]cc1C=Nc1ccc(Cl)cc1Cl,"inconclusive: 89.1 µM [inhibitor, single point]"
15,COCCn1c(C)cc(C(=O)COC(=O)c2c(C)nn(Cc3ccccc3)c2C)c1C,"inconclusive: 44.7 µM [inhibitor, partial curve]"
16,Cc1ccc(N=Nc2ccc(O)c(/C=N\NC(=O)c3ccc(N)cc3)c2)cc1C,"inconclusive: 89.1 µM [inhibitor, single point]"
17,Nc1n[nH]c(N)c1N=Nc1ccc(Cl)cc1,active: 44.7 µM
18,Clc1ccccc1-c1nc(-c2ccc(Br)o2)no1,"inconclusive: 89.1 µM [inhibitor, single point]"
19,Cn1c(-c2ccccc2)cnc1NCc1ccccc1O,active: 50.1 µM
20,COc1cc(/C=C(/C#N)C(=O)Nc2ccccc2)ccc1OCc1ccc(C(=O)O)cc1,active: 56.2 µM
21,COc1ccc(-n2ncc(C(=O)Nc3ccc4c(c3)OCO4)c2C2CCN(C(=O)OC(C)(C)C)CC2)cc1,inactive
22,COc1ccc(Cn2cnc3c([N+](=O)[O-])c(C)c(C)cc32)cc1,"inconclusive: 89.1 µM [inhibitor, single point]"
23,COc1ccc(S(=O)(=O)Nc2cc(Sc3ncn[nH]3)c(O)c3ccccc23)cc1,active: 44.7 µM
24,COc1ccc(NC(=O)c2oc3ccccc3c2NC(=O)Cc2coc3cc(C)ccc23)cc1,inactive
25,CC(C)c1ccc(Nc2nc(Cl)nc(Cl)n2)cc1,"inconclusive: 100 µM [inhibitor, single point]"

row,Compound,Potency
1,COc1ccc(C2NC(=S)N3C(c4ccc(OC)cc4)NC(=S)N23)cc1 (centres undefined),"inconclusive: 89.1 µM [inhibitor, single point]"
2,O=c1c(Cl)c(N2CCN(c3ccc(F)cc3)CC2)cnn1C12CC3CC(CC(C3)C1)C2,"inconclusive: 79.4 µM [inhibitor, single point]"
3,Cc1ccn2c(Nc3ccccc3)c(-c3ccccn3)nc2c1,active: 20 µM
4,COC(=O)CCCCCCCCCC[N+]1(C)CCCCC1,inactive
5,NC(=NCc1ccc2c(c1)OCO2)NC(=O)c1ccccc1,active: 39.8 µM
6,CCn1cc(-c2csc(N)n2)c(C)n1,"inconclusive: 79.4 µM [inhibitor, single point]"
7,Cc1ccc(CNC(=O)CN2C(=O)CSc3c2c(C)nn3-c2ccccc2)cc1,inactive
8,C=CCn1c(N)cc(=O)nc1SC(CC)C(=O)Nc1ccc(C(C)=O)cc1 (centres undefined),"inconclusive: 89.1 µM [inhibitor, single point]"
9,C#CCOCCOCCOCCNc1nc(N2CCN(C(=O)[C@H]([C@@H](C)CC)n3cc([C@@H](N)CO)nn3)CC2)nc(N2CCN(C(=O)[C@H](Cc3cc4ccccc4[nH]3)n3cc([C@@H](N)Cc4ccc(O)cc4)nn3)CC2)n1,active: 14.1 µM
10,N=C1/C(=C\c2ccc(Br)o2)C(=O)N=C2SC(CC(=O)N3CCCCC3)=NN12,"inconclusive: 20 µM [inhibitor, single point]"
11,CC(C)(C)NC(=O)C(=O)NNC(=O)c1cccc(Br)c1,"inconclusive: 89.1 µM [inhibitor, single point]"
12,COc1ccc(Br)cc1/C=N/Nc1cccc(C(=O)O)c1,inactive
13,O=C(Nc1nc(-c2cccc(Br)c2)cs1)Oc1ccccc1,"inconclusive: 44.7 µM [inhibitor, partial curve]"
14,CNNC(=O)C(=O)NNS(=O)(=O)c1ccccc1,"inconclusive: 56.2 µM [inhibitor, partial curve]"
15,N#CC(C#N)=C1NC(N)=C(C#N)C(c2ccccc2)=C1C#N,"inconclusive: 89.1 µM [inhibitor, single point]"
16,CC1(c2ccccc2Cl)NC(=O)N(CC(=O)Nc2ccc(N3CCCCC3)cc2)C1=O (centres undefined),active: 35.5 µM
17,O=C(Nc1ccc([N+](=O)[O-])cc1)Nc1ccc2[nH]c(=O)[nH]c2c1,"inconclusive: 79.4 µM [inhibitor, single point]"
18,COc1ccc2[nH]c(CN3CCN(CCC(C)C)C(CCO)C3)c(C)c2c1 (centres undefined),"inconclusive: 22.4 µM [inhibitor, single point]"
19,CCc1cccc(NC(=O)C2CCCC2)c1,inactive
20,CCc1ccc(C2=Nn3c(nnc3-c3cccs3)SC2)cc1,"inconclusive: 39.8 µM [inhibitor, partial curve]"
21,COc1cccc(NC(=O)COC(=O)CCCc2c[nH]c3ccccc23)c1,"inconclusive: 44.7 µM [inhibitor, partial curve]"
22,CNC1=C(N(C(C)=O)c2ccc(Br)cc2)C(=O)c2ccccc2C1=O,"inconclusive: 79.4 µM [inhibitor, single point]"
23,Cc1ccc(C2=NS(=O)(=O)N(C)C(C(=O)N3CCOCC3)=C2)cc1,inactive
24,ClCc1cc2ccccc2nc1Cl,"inconclusive: 89.1 µM [inhibitor, single point]"
25,O=C(c1ccc2c(c1)CCCC2)N1CCN(c2nc3ccc(F)cc3s2)CC1,inactive

row,Compound,Potency
1,COc1cc(NC(=O)NC(C)c2c(-n3cccc3)sc3c2CCN(C)C3)cc(OC)c1 (centres undefined),"inconclusive: 50.1 µM [inhibitor, partial curve]"
2,O=CN1CCCN(Cc2nc(-c3cccc(Cl)c3)no2)CC1,inactive
3,Cc1ccc(C(O)c2nccn2C)o1 (centres undefined),"inconclusive: 89.1 µM [inhibitor, single point]"
4,CCCOc1ccc(CNC(=O)Cn2cc3c(n2)-c2c(oc(C(=O)N4CCOCC4)c2C)CC3)cc1,"inconclusive: 50.1 µM [inhibitor, partial curve]"
5,Clc1cccc(Cl)c1CNc1ccc(N2CCCC2)cc1,active: 20 µM
6,Nc1ccc2nc(SCC(=O)c3ccccc3)sc2c1,"inconclusive: 44.7 µM [inhibitor, partial curve]"
7,O=C(O)c1ccccc1NS(=O)(=O)c1cccc(-n2sc3ccccc3c2=O)c1,active: 3.98 µM
8,N#C/C(=C/c1ccc(N2CCCCC2)o1)c1cccc(F)c1,active: 39.8 µM
9,COc1ccc(N=C2S/C(=C\c3cc(C)n(C)c3C)C(=O)N2C)cc1,"inconclusive: 39.8 µM [inhibitor, full curve]"
10,O=C(c1ccco1)N(Cc1cccc(F)c1)C1CCS(=O)(=O)C1 (centres undefined),active: 56.2 µM
11,CCOc1ccc(-n2cc(-c3ccccc3)c3c(N4CCC(C)CC4)ncnc32)cc1,"inconclusive: 20 µM [inhibitor, full curve]"
12,COc1ccc(-c2nnc(Nc3ccc(OC)c(C(N)=O)c3)c3ccccc23)cc1,"inconclusive: 70.8 µM [inhibitor, single point]"
13,O=C(O)c1cc(S(=O)(=O)Nc2ccc3oc(=O)sc3c2)ccc1O,"inconclusive: 89.1 µM [inhibitor, single point]"
14,O=c1oc2ccc(Cl)cc2nc1/C=C(\O)c1ccco1,active: 35.5 µM
15,Cn1c(SCC(=O)c2ccc3c(c2)OCO3)nnc1C1COc2ccccc2O1 (centres undefined),inactive
16,CCC1(C)Cc2c(sc3nc(NC)n(C)c(=O)c23)CO1 (centres undefined),"inconclusive: 79.4 µM [inhibitor, single point]"
17,CCOc1ccc(-n2c(=O)c3c4c(sc3n(CC(=O)NC(C)CC)c2=O)CCC4)cc1 (centres undefined),inactive
18,COc1ccc(CC(=O)Nc2cc(-c3nc4cccnc4s3)ccc2C)cc1,"inconclusive: 28.2 µM [inhibitor, full curve]"
19,Cc1cc(SCc2ccccc2Cl)nc(=O)[nH]1,"inconclusive: 79.4 µM [inhibitor, single point]"
20,COc1cccc(-c2nn(C)c3sc(C(=O)N4CCN(c5ccccc5)CC4)cc23)c1,"inconclusive: 39.8 µM [inhibitor, partial curve]"
21,CN(C)c1ccc(/C=C/C(=O)c2cc(Cl)ccc2O)cc1,active: 6.31 µM
22,Cc1c(C=O)c(Cl)n(C)c(=O)c1C#N,active: 56.2 µM
23,COC(=O)c1ccccc1NC(=O)Cn1c(SC)c(F)cnc1=O,inactive
24,CCn1c(C)c(C)c2cc(C(=O)N3CCN(c4cccc(C)c4C)CC3)ccc21,"inconclusive: 39.8 µM [inhibitor, full curve] and inconclusive: 14.1 µM [inhibitor, partial curve]"
